In all, about 330,000 compounds went through this assay and about 300 (0.091%) were called active. The shares of active, inactive and inconclusive entries below differ from those in the screen. Calls follow the shape of the dose curve; as a rule, active = well fitted inhibition curve with a large enough effect; inconclusive = small, poorly fitted or top-dose-only effect, or effect the other way, or another doubt; inactive = no such curve, though single readings can be large or run the other way. No potency is given beside an inconclusive call; the fits are too rough.
Each compound was assayed against Lysosomal acid glucosylceramidase (Homo sapiens) (UniProt P04062) (assay: qHTS Assay for Inhibitors and Activators of N370S glucocerebrosidase as a Potential Chaperone Treatment of Gaucher Disease). Conditions: N370S GC spleen homogenate, 4MU-glucoside fluorescence; activity change, negative = inhibition: at 59.4 µM (top of the series) unless noted.
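For activity change, negative = inhibition in this document: 0% = full enzyme activity and -100% = no enzyme basal.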
Potency is read from the fitted curve at half-maximal effect.

| SMILES | Potency | activity change, negative = inhibition |
| --- | --- | --- |
| CC(Oc1ccc(Br)cc1)C(=O)Nc1cc(Cl)ccc1N1CCN(C)CC1 (stereo not drawn) | inconclusive [inhibitor, partial curve] | – |
| COc1ccc(-n2cc(CNCCc3ncc(C)[nH]3)c(-c3ccccc3Cl)n2)cc1 | – | inactive: -3.81% |
| CCCCn1c(=O)[nH]c(=O)c2c1nc(Cn1ncc(Cl)c(Cl)c1=O)n2CCC | inconclusive [activator, partial curve] | – |
| CCC(=O)Nc1cccc(C(=O)N(Cc2ccccc2)Cc2ccccc2)c1 | active: 7.08 µM | – |
| O=C1c2cccc(OCC(=O)N3CCCc4ccccc43)c2CCN1Cc1ccc(F)cc1 | inconclusive [activator, partial curve] | – |
| Clc1ccccc1CSc1nncn1-c1cccnc1 | inconclusive [activator, partial curve] | – |
| CCOC(=O)/C=C/C(=O)OCC(=O)Nc1ccc(Cl)cn1 | – | inactive: 3.43% |
| CCN(CC)c1c2c(c(C#N)c3nc4ccccc4n13)CCC2 | inconclusive [activator, full curve] | – |
| COc1ccc(-c2n[nH]c(=S)n2C2CCCCC2)cc1 | inconclusive [inhibitor, partial curve] | – |
| O=C(COc1cccc2ccccc12)N/N=C/c1ccc(Sc2nc3ccccc3s2)o1 | inconclusive [activator, partial curve] | – |
| CC12CCC(C(=O)Nc3ccccc3Cl)([C@H](Br)C1=O)C2(C)C (stereo partly drawn) | inconclusive [activator, single point] | – |
| O=C(Nc1ccccc1)c1cnc2n(c1=O)CCS2 | inconclusive [activator, partial curve] | – |
| O=C1CCCC2=C1C(c1cccs1)n1nc(SCc3ccccc3)nc1N2 (stereo not drawn) | inconclusive [activator, single point] | – |
| CCCCCCOc1ccc(C(=O)NCCCn2ccnc2)cc1 | inconclusive [inhibitor, partial curve] | – |
| CSc1nc2n(n1)C(c1ccccn1)C1=C(CC(C)(C)CC1=O)N2 (stereo not drawn) | inconclusive [activator, partial curve] | – |
| CSCCC(NC(N)=O)C(=O)NCc1ccc(Cl)cc1 (stereo not drawn) | inconclusive [inhibitor, single point] | – |
| Cc1cc(C(=O)COC(=O)c2cc(Cl)ccc2N)c(C)n1Cc1ccco1 | inconclusive [activator, partial curve] | – |
| COC(=O)CSc1ncnc2c1sc1nc(N3CCOCC3)c3c(c12)CCCC3 | – | inactive: 0.429% |
| O=C(c1ccc(F)cc1)c1ccc(N2CCCC2)cc1 | – | inconclusive: 41.1% [activator] |
| Cc1ccc2nc3c(cc(C(=O)NCCc4ccccc4)c(=N)n3CC3CCCO3)c(=O)n2c1 (stereo not drawn) | inconclusive [activator, partial curve] | – |
| CCc1ccccc1NC(=O)NC1CCCCC1 | – | inactive: 7.77% |
| C(=C\N1CCCCCC1)/c1nnnn1-c1ccc(-c2ccccc2)cc1 | inconclusive [activator, single point] | – |

| SMILES | Potency | activity change, negative = inhibition |
| --- | --- | --- |
| Cc1ccc(S(=O)(=O)N(CC(=O)Nc2cccc([N+](=O)[O-])c2)C2CCCCC2)cc1 | – | inconclusive: 30.4% [activator] |
| CC(=O)c1ccc2c(c1)Nc1ccccc1S2 | – | inactive: 3.05% |
| Cc1ccc(CNC(=O)CNC(=S)N(Cc2ccccc2)Cc2cccnc2)cc1 | inconclusive [inhibitor, single point] | – |
| CNC(=O)/C(C#N)=C/c1c(N2CCN(c3ccccc3)CC2)nc2c(C)cccn2c1=O | inconclusive [activator, full curve, poor fit] | – |
| CC1CCN(CC(O)COC2CC(C)CCC2C(C)C)CC1 (stereo not drawn) | inconclusive [inhibitor, single point] | – |
| CN(C)c1ncc2nc(CCc3ccccc3)c(=O)n(C[C@H]3CCCO3)c2n1 | inconclusive [activator, partial curve] | – |
| Cn1c(SCc2ccc(F)cc2)nnc1-c1cccs1 | – | inactive: -3.23% |
| CCC(CC)C(=O)Nc1ccc(-c2cn3cccnc3n2)cc1 | inconclusive [activator, partial curve] | – |
| CNc1nnc(-c2ccc(N(C)C)cc2)s1 | inconclusive [activator, single point] | – |
| O=c1[nH]c2ccccc2nc1-c1ccc(Cl)cc1 | inconclusive [activator, partial curve] | – |
| COc1ccc(-c2cc3ccc(OCC(C)=O)cc3oc2=O)cc1OC | inconclusive [activator, single point] | – |
| COc1cc(CNCCc2ccc(S(N)(=O)=O)cc2)ccc1OCc1ccc(Cl)cc1 | inconclusive [inhibitor, partial curve] | – |
| Cc1ccc(-c2cc(C(=O)N3CCN(c4ccccc4O)CC3)c3ccccc3n2)o1 | inconclusive [activator, single point] | – |
| CCOc1ccccc1NC(=O)N1CCCC(c2nc3c(nnn3Cc3ccc(C)cc3)c(=O)[nH]2)C1 (stereo not drawn) | inconclusive [activator, partial curve] | – |
| Cc1cc(NC(=O)Cn2c(=O)n(Cc3ccccc3)c(=O)c3ccccc32)no1 | – | inconclusive: 31.3% [activator] |
| Cc1cccc(N(C(=O)c2snc(C(N)=O)c2N)C(C(=O)NCC2CCCO2)c2ccc3ncccc3c2)c1 (stereo not drawn) | inconclusive [activator, partial curve] | – |
| c1nc2nc(Nc3ccc(N4CCOCC4)cc3)nc(NC3CCCCC3)c2[nH]1 | – | inactive: -20.6% |
| NC(=O)N/N=C/c1coc2ccc(O)cc2c1=O | – | inactive: -3.51% |
| Cc1c(C)c2c(OCC(=O)N3CCC[C@H]3C(=O)O)cc3c(c2oc1=O)CCC(C)(C)O3 | inconclusive [activator, partial curve] | – |
| COc1cc(/C=N/Nc2ccc(Cl)c(C(=O)O)c2)ccc1OC(=O)c1ccc(F)cc1 | – | inactive: -14.2% |
| CC(=NCCc1c(C)[nH]c2ccc(OCc3ccccc3)cc12)C1=C(O)CC(c2ccccc2)CC1=O (stereo not drawn) | inconclusive [activator, partial curve] | – |

— PubChem BioAssay AID2101 (National Center for Advancing Translational Sciences (NCATS), 2009)
